Measured values taken from patent publication US20250179151A1, “SPIKE FURIN CLEAVAGE IS A SARS-COV-2 TARGETING STRATEGY TO BREAK THE CHAIN OF INFECTION CYCLE” (University of Virginia Patent Foundation, priority 2022, published 2025).
“Also recorded” adds a separate entry of the source.

Key:
293-ACE2 cells = type: cell-based; conditions: spike transfected 293-ACE2 cells, 24 hours
spike cleavage at S1/S2 = type: cell-based, SARS-CoV-2

B1: 6.30-IgG1: ACE-2-RBD neutralizing antibody (Rogers et al., 2020); SEQ ID NOs: 20 and 23 (protein)
light: DIQMTQSPSSLSASVGDRVTITCRASQNISSYLNWYQQEAGKAPKLLIYAASSLQSGVPSRFSGSGSGTDFTLTISSLQPEDFATYYCQQSYSTPRTFGQGTKVDIKRTVAAPSVFIFPPSDEQLKSGTASVVCLLNNFYPREAKVQWKVDNALQSGNSQESVTEQDSKDSTYSLSSTLTLSKADYEKHKVYACEVTHQGLSSPVTKSFNRGEC
heavy: QVQLVQSGAEVKKPGSSVKVSCKASGGTFSIYAITWVRQAPGQGLEWMGGIIPIIGTANYAQKFQGRVTITADKSTSTAYMELSSLRSEDTAVYYCARDFRYCSSTRCYFWFDPWGQGTLVTVSSASTKGPSVFPLAPSSKSTSGGTAALGCLVKDYFPEPVTVSWNSGALTSGVHTFPAVLQSSGLYSLSSVVTVPSSSLGTQTYICNVNHKPSNTKVDKKVEPKSCDKTHTCPPCPAPEAAGGPSVFLFPPKPKDTLMISRTPEVTCVVVDVSHEDPEVKFNWYVDGVEVHNAKTKPREEQYNSTYRVVSVLTVLHQDWLNGKEYKCKVSNKALPAPIEKTISKAKGQPREPQVYTLPPSREEMTKNQVSLTCLVKGFYPSDIAVEWESNGQPENNYKTTPPVLDSDGSFFLYSKLTVDKSRWQQGNVFSCSVMHEALHNHYTQKSLSLSLGK
293-ACE2 cells
  syncytia blockade: significantly more effective; also recorded: significantly effective
Spike cleavage at S1/S2
  inhibition of spike cleavage at S1/S2: non-inhibitory
